Source: a compilation of properties of binary mixtures (doi:10.1021/je901058s)
Some of these densities may be calculated back from excess volumes.

Assay: xn = mol fraction of the nth substance listed
Conditions: 101 kPa

CCCCCCCCn1cc[n+](C)c1.O=[N+]([O-])[O-] + CCCCO
mass density [kg/m3]
Conditions | 283.15 K | 288.15 K | 293.15 K | 298.15 K | 303.15 K | 308.15 K | 313.15 K | 318.15 K | 323.15 K | 328.15 K
x2 = 0.168 | – | 1052.5 | 1049.3 | 1046.2 | 1043 | 1039.9 | – | 1033.8 | 1030.8 | 1024.7
x2 = 0.261 | 1043.9 | 1040.6 | 1037.4 | 1034.2 | 1031.1 | 1028 | 1024.9 | 1021.8 | 1018.7 | 1012.6
x2 = 0.358 | 1029.8 | 1026.4 | – | 1019.9 | 1016.8 | – | – | – | 1004.1 | 997.9
x2 = 0.458 | 1012.7 | 1009.2 | 1005.9 | – | – | 996.2 | 993 | 989.8 | – | –
x2 = 0.57 | 989.6 | 986.1 | – | – | 976.1 | 972.8 | 969.4 | 966.2 | – | 956.1
x2 = 0.676 | 962.6 | 959.1 | – | 952.4 | – | – | 942.1 | 938.7 | – | 928.4
x2 = 0.754 | 938.4 | 935 | 931.5 | 928 | 924.5 | 921.1 | 917.6 | 914.2 | 910.6 | 903.5
x2 = 0.848 | 902.2 | 898.7 | – | – | 888 | 884.4 | 880.8 | 877.2 | – | 866.4

CCCCCCCCn1cc[n+](C)c1.O=[N+]([O-])[O-] + CCCO
mass density [kg/m3]
Conditions | 283.15 K | 288.15 K | 293.15 K | 298.15 K | 303.15 K | 308.15 K | 313.15 K | 318.15 K | 323.15 K | 328.15 K
x2 = 0.107 | 1064.8 | 1061.4 | 1058.3 | 1055.1 | 1052 | 1048.8 | 1045.8 | 1042.7 | 1039.7 | 1033.6
x2 = 0.258 | 1048.9 | – | 1042.3 | 1039.1 | – | 1032.9 | 1029.7 | – | 1023.5 | 1017.3
x2 = 0.364 | 1035.1 | 1031.6 | 1028.5 | 1025.3 | – | 1019 | 1015.8 | 1012.4 | 1009.3 | 1003
x2 = 0.47 | 1018.5 | 1015.1 | – | 1008.6 | 1005.4 | 1002.2 | – | 995.6 | 992.3 | 985.8
x2 = 0.556 | 1002.2 | – | – | 992.3 | 988.9 | – | 982.3 | 978.9 | 975.6 | –
x2 = 0.671 | 975 | 971.6 | – | 964.8 | 961.3 | 957.9 | – | – | 947.7 | 940.9
x2 = 0.756 | 949 | 945.5 | 942 | 938.4 | 935 | 931.4 | 927.9 | 924.4 | 920.9 | 913.8
x2 = 0.866 | 902.9 | 899 | 895.3 | – | 887.9 | 884.3 | 880.6 | 876.8 | 873.1 | 865.6

CCCCCCCCn1cc[n+](C)c1.O=[N+]([O-])[O-] + CCO
mass density [kg/m3]
Conditions | 283.15 K | 288.15 K | 293.15 K | 298.15 K | 303.15 K | 308.15 K | 313.15 K | 318.15 K | 323.15 K | 328.15 K
x2 = 0.128 | 1065.1 | 1061.6 | 1058.4 | 1055.3 | 1052.1 | 1048.9 | 1045.8 | – | 1039.7 | –
x2 = 0.266 | 1053 | 1049.6 | 1046.4 | 1043.3 | 1040.1 | 1036.8 | 1033.7 | 1030.6 | 1027.4 | 1021.3
x2 = 0.357 | 1043 | – | 1036.5 | 1033.4 | 1030 | 1026.7 | 1023.6 | – | 1017.2 | –
x2 = 0.455 | 1030 | 1026.7 | – | 1020.4 | 1016.9 | 1013.6 | 1010.5 | – | 1003.8 | 997.4
x2 = 0.554 | – | 1010.7 | 1007.5 | 1004.3 | – | 997.2 | 994 | 990.4 | 987.1 | –
x2 = 0.662 | 991.6 | 988.3 | 985 | 981.8 | 977.9 | 974.3 | 970.8 | 967.1 | 963.7 | 956.8
x2 = 0.767 | 961.3 | 957.9 | – | – | – | 943.1 | – | 935.4 | 931.8 | 924.4
x2 = 0.868 | 915.7 | – | 908.1 | 904.8 | 900.3 | 896.3 | 892 | 888 | 883.9 | 876.1
